Results from IntAct's records for PubMed 19151134.

B1: Adrenocorticotropic hormone receptor (Homo sapiens), Q01718 (parent)
chain: MKHIINSYENINNTARNNSDCPRVVLPEEIFFTISIVGVLENLIVLLAVFKNKNLQAPMYFFICSLAISDMLGSLYKILENILIILRNMGYLKPRGSFETTADDIIDSLFVLSLLGSIFSLSVIAADRYITIFHALRYHSIVTMRRTVVVLTVIWTFCTGTGITMVIFSHHVPTVITFTSLFPLMLVFILCLYVHMFLLARSHTRKISTLPRANMKGAITLTILLGVFIFCWAPFVLHVLLMTFCPSNPYCACYMSLFQVNGMLIMCNAVIDPFIYAFRSPELRDAFKKMIFCSRYW
partner: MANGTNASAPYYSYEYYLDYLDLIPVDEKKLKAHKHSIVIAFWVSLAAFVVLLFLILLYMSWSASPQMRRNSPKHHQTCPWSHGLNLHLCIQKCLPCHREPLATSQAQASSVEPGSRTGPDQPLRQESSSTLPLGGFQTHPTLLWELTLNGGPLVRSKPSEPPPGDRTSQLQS

Variants of: B1
Conditions: with q8tcy5-1 MRAP

With MKHIINSYENINNTARNNSDCPRVVLPEEIFFTISIVGVLENLIVLLAVFKNKNLQAPMYFFICSLAISDMLGSLYKILENILIILRNMGYLKPRGSFETTADDIIDSLFVLSLLGSIFSLSVIAADRCITIFHALRYHSIVTMRRTVVVLTVIWTFCTGTGITMVIFSHHVPTVITFTSLFPLMLVFILCLYVHMFLLARSHTRKISTLPRANMKGAITLTILLGVFIFCWAPFVLHVLLMTFCPSNPYCACYMSLFQVNGMLIMCNAVIDPFIYAFRSPELRDAFKKMIFCSRYW [Y129C] as the variant, how does the “effect of a mutation on the interaction” value read?
Its value is “disrupting interaction strength”.

For MKHIINSYENINNTARNNSDCPRVVLPEEIFFTISIVGVLENLIVLLAVFKNKNLQAPMYFFICSLAISDMLGSLYKILENILIILRNMGYLKPRGSFETTADDIIDSLFVLSLLGSIFSLSVIAADRCITIFHALRYHSIVTMRRTVVVLTVIWTFCTGTGITMVIFSHHVPTVITFTSLFPLMLVFILCLYVHMFLLARSHTRKISTLPRANMKGAITLTILLGVFIFCWAPFVLHVLLMTFCPSNPYCACYMSLFQVNGMLIMCNAVIDPFIYACRSPELRDAFKKMIFCSRYW [Y129C;F278C], which “effect of a mutation on the interaction” value is on record?
The value was “disrupting interaction strength”.

MKHIINSYENINNTARNNSDCPRVVLPEEIFFTISIVGVLENLIVLLAVFKNKNLQAPMYFFICSLAISDMLGSLYKILENILIILRNMGYLKPRGSFETTADDIIDSLFVLSLLGSIFSLSVIAADRYITIFHALRYHSIVTMRRTVVVLTVIWTFCTGTGITMVIFSHHVPTVITFTSLFPLMLVFILCLYVHMFLLARSHTRKISTLPRANMKGAITLTILLGVFIFCWAPFVLHVLLMTFCPSNPYCACYMSLFQVNGMLIMCNAVIDPFIYACRSPELRDAFKKMIFCSRYW [F278C] was tested. Which “effect of a mutation on the interaction” value did it give?
The value was “with no effect”.

Variants of: B1
Conditions: with q8tcy5-1 MRAP
Remark: another data set of the same source

With MKHIINSYENINNTARNNSDCPRVVLPEEIFFTISIVGVLENLIVLLAVFKNKNLQAPMYFFICSLAISDMLGSLYKILENILIILRNMGYLKPRGSFETTADDIIDSLFVLSLLGSIFSLSVIAADRCITIFHALRYHSIVTMRRTVVVLTVIWTFCTGTGITMVIFSHHVPTVITFTSLFPLMLVFILCLYVHMFLLARSHTRKISTLPRANMKGAITLTILLGVFIFCWAPFVLHVLLMTFCPSNPYCACYMSLFQVNGMLIMCNAVIDPFIYAFRSPELRDAFKKMIFCSRYW [Y129C] as the variant, how does the “effect of a mutation on the interaction” value read?
Its value is “with no effect”.
